Structures are written as SMILES. The campaign covered roughly 150,000 compounds. About 540 (0.36%) showed an effect of 50% or more. The list shows a part of the results.

Broadly, the % Inhibition is the drop in the measured response relative to a control, in per cent.

In this assay the test system is Plasmodium falciparum. Description: Primary screen in NF54 nanoGlo assay, in single point, at 2uM, 72h; a lower Z score goes with more inhibition. Conditions: timepoint 72 hour. Type of assay: functional, Erythrocyte.
With `Cc1cccc(NC(=O)c2cc(S(=O)(=O)N3CCCCC3)ccc2Cl)n1`, the “% Inhibition” value is listed as -10% and the Z score was 2.03.
As for `Cc1ccc(NC(=O)Cn2cnc3c(c2=O)CCCC3)c(Br)c1`, the “% Inhibition” value is on record as -15% and the Z score is reported as 1.87.
Regarding `CC1(C)CN(C(=O)Cc2cccnc2)C[C@]1(O)C1CC1`, the “% Inhibition” value is on record as -3% and the Z score was found to be 0.39.
For `CC(=C(F)C(=O)N1CCCC[C@@H]1CO)C1CC1`, the “% Inhibition” value is listed as -9% and the Z score worked out at 1.41.
Take `COC(=O)N1CCC(NC2c3ccccc3CC2C)CC1` (stereo not given): the “% Inhibition” value is given as -13% and the Z score was determined as 1.06.
For `CC(NCc1nnc(-c2ccco2)o1)C(C)n1cccn1` (stereo not given), the “% Inhibition” value was -1% and the Z score is listed as 0.21.
Consider `Cc1noc2ncnc(Nc3ccc4c(c3)NC(=O)[C@H](C)O4)c12`, for which the “% Inhibition” value is on record as -8% and the Z score was found to be 0.86.
As for `Cc1cc(C(=O)NCCc2cncnc2)no1`, the “% Inhibition” value is given as -3% and the Z score worked out at 0.32.
On to `Cc1cc(C(=O)NCc2cc(-c3ccco3)n(C)n2)no1`, for which the “% Inhibition” value is on record as 4% and the Z score was -0.46.
Regarding `N#CCN[C@H](c1ccccc1OC(F)F)C(F)(F)F`, the “% Inhibition” value is given as -21% and the Z score is recorded as 3.12.
For the compound `Cc1ccc2c(c1)N(S(C)(=O)=O)CC[C@@H](C(=O)N1CCCCC1)O2`, the “% Inhibition” value amounted to 11% and the Z score is recorded as -1.86.
For `C[C@@H](CCCO)NC(=O)NCCc1ccc(F)cc1Cl`, the “% Inhibition” value was -17% and the Z score was found to be 1.47.
In the same order, the values of `O=C(NCc1n[nH]c(=O)[nH]1)C(=O)Nc1ccc(Br)cc1Cl` are -2% and 0.31.
For the compound `O=C(NC1CC2CCC1O2)N1CC2C3CCC(O3)C2C1` (stereo not given), the “% Inhibition” value is recorded as 11% and the Z score was -1.59.
Regarding `FC1=CCCN(c2cnc3ccccc3n2)C1`, the “% Inhibition” value worked out at 9% and the Z score is on record as -1.07.
Turning to `CC(C)Cc1nc(CN(C)C(=O)NC[C@H]2CCN(C(C)(C)C)C2)no1`, the “% Inhibition” value is recorded as -15% and the Z score came to 1.36.
For the compound `COc1cc([C@H]2CC(=O)Nc3c2cnn3C(C)(C)C)cc2c1OCCO2`, the “% Inhibition” value is on record as -1% and the Z score came to 0.07.
In the same order, the values of `C[C@H](NC(=O)Cc1c(F)cccc1F)c1nc(C(F)(F)F)no1` are -3% and 0.48.
`Cc1ccc(-c2nc3ccccc3c(=O)[nH]2)o1`: the “% Inhibition” value is -10% and the Z score was 1.81.
On to `C[C@H]1CS(=O)(=O)N(c2ccc(C(=O)N3CCCC3)cc2)C1=O`, for which the “% Inhibition” value was -16% and the Z score turned out to be 2.03.
On to `CCc1ccc(CNCC2(N(C)C)CCCC2)cc1`, for which the “% Inhibition” value was -18% and the Z score is recorded as 2.58.
As to `Cc1ccc(C2=NOC3(CCN(C(=O)c4cc(F)ccc4F)CC3)N2)cc1`, the “% Inhibition” value was -9% and the Z score is 1.15.
Taken in the same sequence, the figures for `CC(C)c1nc2ccc(C(=O)NCc3ccc(F)cc3)cc2o1` were -20% and 1.82.
`C[C@@H](Cc1ccc(Br)cc1F)NC(=O)c1c[nH]nn1`: the “% Inhibition” value was -1% and the Z score was determined as 0.16.
For the compound `CN1C(=O)C(C)(C)c2cc(S(=O)(=O)N3CCC(C(=O)N[C@H]4CCCc5ccccc54)CC3)ccc21`, the “% Inhibition” value is -9% and the Z score is on record as 0.85.
Taken in the same sequence, the figures for `O=C(Cn1c2c(c(=O)n(C3CCCCC3)c1=O)CCC2)NCCCN1CCOCC1` were -15% and 2.49.
On to `COc1cc(NC(=O)c2cc(S(=O)(=O)N3CCN(c4ccccc4)CC3)ccc2Cl)c(OC)cc1NC(=O)c1ccccc1`, for which the “% Inhibition” value is -6% and the Z score is 1.
On to `O=C(Cn1nc2c(N3CCN(c4ccccc4)CC3)nccn2c1=O)Nc1ccc(Cl)cc1F`, for which the “% Inhibition” value is given as -12% and the Z score is 1.18.
With `CCc1ocnc1C(=O)N[C@H]1CCOC[C@@H]1OCC1CCC1`, the “% Inhibition” value is listed as 4% and the Z score is given as -0.41.
As for `CC(NC(=O)NCc1c(C2CC2)cnn1C)C1COc2ccccc21` (stereo not given), the “% Inhibition” value is reported as -1% and the Z score stood at 0.19.
For `Cc1ccccc1CNC(=O)c1nc(-c2ccnc(N3CCOCC3)c2)no1`, the “% Inhibition” value was -9% and the Z score amounted to 1.24.
Taken in the same sequence, the figures for `CC(C)(CN1CCCCCC1)c1nc2cc3[nH]c(=O)[nH]c3cc2[nH]1` were -7% and 1.04.
Regarding `C#CCN(C)S(=O)(=O)Cc1ccc(CC)cc1`, the “% Inhibition” value is listed as -8% and the Z score stood at 1.45.
`CN(Cc1ccc(Cl)s1)C(=O)CN1CCC[C@H]1C(=O)O`: the “% Inhibition” value is recorded as 1% and the Z score is reported as -0.13.
In the same order, the values of `C1CCC(CCCN2CCNCC2)CC1` are -9% and 1.06.
In the case of `O=C(CN1C(=O)CN(c2ccccc2)C1=O)Nc1ccc2c(c1)OCCO2`, the “% Inhibition” value is listed as -16% and the Z score worked out at 1.45.
In the same order, the values of `CCN(C(=O)NCc1nc(C(=O)NC)no1)C1CCCCCC1` are 11% and -1.46.
In the same order, the values of `Cc1ccc2nc(-c3ccccc3NC(=O)c3ccc(N(C)C)cc3)ccc2c1` are 0% and 0.02.
Take `CC1(C)CN(CCNc2nc(C(F)F)nc3ccccc23)CCO1`: the “% Inhibition” value is reported as -11% and the Z score is reported as 1.54.
Turning to `Cn1cc(-c2noc(-c3n[nH]c(=O)c4ccccc34)n2)cn1`, the “% Inhibition” value is listed as 10% and the Z score is recorded as -1.26.
As to `CS(=O)(=O)N1C[C@H](C(=O)Nc2ccc(N3CCOCC3)cc2)C2(CCCCC2)C1`, the “% Inhibition” value is recorded as -13% and the Z score is listed as 2.
`NCc1cc(F)c(Br)cc1F`: the “% Inhibition” value is -10% and the Z score is 1.41.
For `COc1cc(-c2ncnn2-c2ccc(Cl)c(C)c2)ccc1OCc1ccccc1`, the “% Inhibition” value is given as -7% and the Z score is 0.81.
With `CC(C)N(CCNC(=O)C1CCN(c2ncnc3c2nc2n3CCCCC2)CC1)Cc1ccccc1`, the “% Inhibition” value is -2% and the Z score is given as 0.38.
On to `CCOC(=O)c1sc(Nn2cc(C(=O)OC)c3n[nH]c(=O)c-3c2)nc1C`, for which the “% Inhibition” value was determined as 0% and the Z score came to 0.02.
In the same order, the values of `O=C(c1cccc(F)c1)N1C2C=CC(C2)C1(C(F)(F)F)C(F)(F)F` (stereo not given) are 27% and -3.07.
Regarding `CC(C)Cc1ncc2c(n1)CN(CC[C@H]1CCCCN1C)C2`, the “% Inhibition” value is on record as -8% and the Z score was 1.11.
Take `COc1cccc(CN2CCC(CO)(CCCc3ccccc3)CC2)c1OC`: the “% Inhibition” value is 0% and the Z score is 0.06.
In the same order, the values of `COc1ccc(OC)c(-c2ccnc(-n3ncc(C(=O)NCC(C)(C)N4CCOCC4)c3C)n2)c1` are 11% and -1.36.
With `C[C@H](NC(=O)N1CCOC(CS(C)(=O)=O)C1)c1cccc(O)c1` (stereo not given in full), the “% Inhibition” value is -2% and the Z score was determined as 0.37.
Taken in the same sequence, the figures for `Cc1nn(-c2cccc(Cl)c2)c2nc(-c3ccccn3)cc(C(F)(F)F)c12` were -10% and 1.85.
In the case of `Cc1nc(Cn2nc(C3CCNCC3)n(Cc3ccccc3)c2=O)sc1C`, the “% Inhibition” value is given as -7% and the Z score is listed as 1.41.
Regarding `CCN1CCN(C(=O)c2cc(C)nc(C)n2)[C@@H](C)C1=O`, the “% Inhibition” value was -7% and the Z score was 1.27.
In the same order, the values of `CC(Nc1ncnc2nc[nH]c12)C1CN(Cc2ccccc2)CCO1` (stereo not given) are -9% and 1.67.
In the same order, the values of `O=C(Nc1ccc(OC[C@H](O)c2ccccc2F)cc1)c1ccco1` are -14% and 2.26.
For the compound `O=S(=O)(c1ccc(-c2csc(-c3ccc(O)cc3)n2)cc1)N1CCOCC1`, the “% Inhibition” value is on record as 6% and the Z score was -1.16.
`O=C(NCCCc1ccccc1)[C@H]1CCCNCC1`: the “% Inhibition” value is on record as -5% and the Z score is 0.48.
Take `Fc1cc(F)c(CN2CCn3nc(CNc4ncccn4)cc3C2)c(F)c1`: the “% Inhibition” value is reported as -5% and the Z score worked out at 0.6.
For `O=C(NCCOCC(F)(F)F)NCCc1ccc(Cl)s1`, the “% Inhibition” value is 5% and the Z score was -0.86.
In the same order, the values of `O=C(CCOc1ccccc1)N[C@@H]1COC2(CCCC2)C1` are 13% and -1.61.
Take `COc1ccc(NC(=O)NC(Cc2ccc(F)cc2)Cc2ccc(F)cc2)c(OC)c1`: the “% Inhibition” value is recorded as -6% and the Z score was 0.98.
In the same order, the values of `Cn1c(=O)ccc2c(NCCO)ncnc21` are -9% and 1.52.
`CN1CCOC[C@@H](Cn2cnc3ccc(Cl)cc3c2=O)C1`: the “% Inhibition” value was -10% and the Z score came out at 1.92.
For `CCC(NC(C)Cn1ncc2ccccc2c1=O)c1ccccc1O` (stereo not given), the “% Inhibition” value was -1% and the Z score turned out to be 0.18.
Taken in the same sequence, the figures for `Cc1ccc(OCCC(=O)N2CC[C@@H](N)C2)c(Br)c1` were 4% and -0.81.
In the case of `COc1cc(CNn2cnnc2)ccc1OCc1ccc(F)cc1Cl`, the “% Inhibition” value was -7% and the Z score was determined as 0.99.
Taken in the same sequence, the figures for `CCCN(C[C@H]1CCOC1)C(=O)NCC(C)C` were -7% and 0.94.
`O=C(CC(F)(F)F)N(Cc1ccco1)C1CC1`: the “% Inhibition” value was -10% and the Z score is recorded as 1.84.
In the case of `O=C(NCCN1CCCCC1)c1cc2n(n1)CCN(Cc1cccc(C(F)(F)F)c1)C2=O`, the “% Inhibition” value was -5% and the Z score was 0.81.
In the case of `Cc1ccc(NS(=O)(=O)c2ccc(Oc3ccc4c(C(F)(F)F)cc(C(F)(F)F)nc4n3)cc2)cc1`, the “% Inhibition” value is listed as -9% and the Z score is 1.26.
`CCCC(=O)N1CCC(C(=O)Nc2nc3c(s2)CCC3)CC1`: the “% Inhibition” value was 12% and the Z score is on record as -1.2.
For `CC1CC(C)(C)CC(CO)(NC(=O)c2csnn2)C1` (stereo not given), the “% Inhibition” value amounted to 0% and the Z score turned out to be 0.
On to `COC(=O)C1CC2CCCCC2N1S(=O)(=O)c1ccc(C(N)=O)cc1` (stereo not given), for which the “% Inhibition” value came out at 1% and the Z score is -0.26.
In the same order, the values of `CCN(Cc1nc(C(C)C)no1)C(=O)c1c(C)ncnc1C` are -1% and 0.13.
In the same order, the values of `Cc1nn(C2CCCC2)c2nc(-c3cccs3)[nH]c12` are -10% and 1.39.
On to `O=C1C[C@@H](c2cccc(Oc3ccccc3)c2)NC(=O)N1`, for which the “% Inhibition” value came to 4% and the Z score is recorded as -0.75.
As to `COc1ccc(C2=NN(c3nc(-c4ccccc4)cs3)[C@H](c3ccc(Cl)cc3Cl)C2)cc1F`, the “% Inhibition” value was -2% and the Z score was 0.34.
As for `Nc1nc2c(c(-c3cccnc3)n1)CN(C(=O)[C@H]1C[C@@H]1c1ccccc1)C2`, the “% Inhibition” value was -4% and the Z score was 0.45.
Consider `CCOc1cc(C(=O)N2CCC3(O)CCCCC3[C@@H]2c2ccccc2OC)cc(OCC)c1OCC` (stereo not given in full), for which the “% Inhibition” value is given as 2% and the Z score is listed as -0.26.
On to `Cc1ccc2ncc(-c3ccnc(CO)c3)cc2c1`, for which the “% Inhibition” value is listed as 1% and the Z score is -0.22.
In the same order, the values of `CN(CC(=O)NC1CCOCC1)[C@H]1CCCN(Cc2ccccc2)C1` are -11% and 2.06.
Turning to `Cc1nc(O)c(Br)cc1C(=O)N1CCC(OC2CCC2)CC1`, the “% Inhibition” value was 12% and the Z score was -2.38.
Consider `CCc1ccc([C@@H]2CCCCCN2C(=O)CCN2CCCC2=O)o1`, for which the “% Inhibition” value was -10% and the Z score was determined as 0.93.
Taken in the same sequence, the figures for `Cc1n[nH]c2ncc(NCc3cccc(C#N)c3)cc12` were -5% and 0.53.
As for `Cc1ccc(-n2ccc3c(nnc4ncnn43)c2=O)cc1`, the “% Inhibition” value was -2% and the Z score is on record as 0.25.

The record behind these values is ChEMBL document CHEMBL4888484, “Replenishing the malaria drug discovery pipeline: Screening and hit evaluation of the MMV Hit Generation Library 1 (HGL1) against asexual blood stage Plasmodium falciparum ,using a nano luciferase reporter read-out” (2022).
